# PubChem BioAssay AID493208 (National Center for Advancing Translational Sciences (NCATS), 2011)
# Among all 44,000 compounds or so, about 340 (0.77%) were called active. Roughly 5% stayed inconclusive and do not appear here. The call rests on the fitted dose curve; in most records, active means well fitted inhibition curve with a large enough effect; inconclusive means small, poorly fitted or top-dose-only effect; inactive means flat fitted curve, though single readings scatter. The list shows a part of the results.
# Test: Acumen qHTS Assay for Inhibitors of the mTORC1 Signaling Pathway in MEF (Tsc2-/-, p53-/-) Cells: Sytravon; further: nearly all actives have a fitted effect of over 50% in size;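 on activity change, negative = inhibition: plate controls were DMSO for no effect and rapamycin for full effect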
# Conditions: phospho-rpS6 immunofluorescence/PI, 24 h; series mostly up to 38.3 µM; activity change, negative = inhibition: at the top concentration
# Outline: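 Tsc2-/-, p53-/- MEFs (empty-vector stable line) in DMEM + 10% FBS were treated with compounds 24 h at 37 degree Celsius, fixed, and immunostained for phospho-rpS6 (Alexa-488) with propidium iodide counterstain. Laser-scanning cytometry gave % positive cells, normalized against 7.5 nM rapamycin and DMSO.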
# Potency means the concentration at half of the fitted maximal effect.
SMILES,"activity change, negative = inhibition",Potency
CCN1C(=O)c2ccccc2S(=O)c2ccc(C(=O)NCc3ccc(C)cc3)cc21 (configuration not stated),inactive: -1.2%,–
COc1ccc(-c2nc(SCC(=O)c3ccc(Br)cc3)n[nH]2)cc1,inactive: -16.9%,–
Cc1c(CNC2CCC(C)CC2)c(C(=O)O)c(C)n1Cc1ccccc1F (configuration not stated),inactive: 1.22%,–
COc1ccc(/C=C(/C#N)c2nc(-c3cc4ccccc4oc3=O)cs2)cc1,inactive: -3.84%,–
CCC1CN(C(=O)Nc2ccccc2C(F)(F)F)c2ccccc2O1 (configuration not stated),inactive: -15.6%,–
Cc1cccc(N2CC(c3nc4ccc(C)cc4[nH]3)CC2=O)c1 (configuration not stated),inactive: -3.42%,–
CCOc1ccc(NC(=O)CC2C(=O)N(c3ccc(C)cc3)C(=O)N2C2CCCCC2)cc1 (configuration not stated),inactive: 0.0187%,–
O=C(NC1(C(F)(F)F)N=C(c2ccccc2)N(C2CCCCC2)C1=O)c1ccc(F)cc1 (configuration not stated),inactive: -2.96%,–
Cc1cc(C)n(CCc2nc3c4ccccc4nc(SCc4ccc(Cl)cc4)n3n2)n1,inactive: -2.8%,–
Cn1ccc2cc(S(=O)(=O)N3CCCC(C(=O)NCc4ccc(F)cc4)C3)ccc21 (configuration not stated),inactive: -9.25%,–
CCOc1ccccc1-c1noc(CCCC(=O)Nc2cccc(C(F)(F)F)c2)n1,inactive: -6.92%,–
CC(=O)Nc1ccc(NC(=O)c2cc3c(=O)n(Cc4cccnc4)ccc3nc2C)cc1,inactive: -0.18%,–
N#Cc1cccc(NC(=O)C2CCN(c3cnccn3)CC2)c1,inactive: -1.83%,–
Cc1ccc(-n2nc3cc(C)c(NC(=O)COc4ccccc4)cc3n2)cc1,inactive: -4.18%,–
Cc1ccc(C(=O)NCC(=O)OCc2cc(=O)n3c(C)csc3n2)cc1,inactive: -2.38%,–
CCc1cc2c(cc3c(=O)n(CC(=O)NC4CCCCC4)nc(CC)n32)s1,inactive: 0.26%,–
Cc1cn(C)c(CC(=O)N2CCN(c3cccc(C(F)(F)F)c3)CC2)c1C(=O)O,inactive: -10.1%,–
CCOC(=O)CCN(c1ccccc1)S(=O)(=O)c1cc(-c2cc(C)no2)ccc1C,inactive: -12.8%,–
Cc1cc(C)c2oc(C(=O)Nc3c(C)n(C)n(-c4ccccc4)c3=O)cc(=O)c2c1,inactive: -10.4%,–
O=C(NCC(c1cccnc1)N1CCc2ccccc21)c1ccc(F)c(F)c1 (configuration not stated),inactive: -7.72%,–
CC(=O)N1CCc2c(sc3c2c(=O)n(-c2ccccc2C)c(=O)n3CC(=O)c2ccccc2)C1,inactive: -0.864%,–
CC(C)n1cc2c(c1-c1ccccc1Cl)c(=O)n(C)c(=O)n2C,inactive: -1.01%,–
Cc1ccc(C)c(NC(=O)Cn2c(=O)n(-c3ccccc3C)c(=O)c3c2c2cc(C)ccc2n3C)c1,inactive: -6.43%,–
Cc1cccc(C(=O)Nc2cccc(OCc3cc(=O)n4cc(C)sc4n3)c2)c1,inactive: 5.33%,–

SMILES,"activity change, negative = inhibition",Potency
COc1ccccc1-c1nc2c(c(SCC(=O)Nc3ccccc3F)n1)Cc1c(CO)cnc(C)c1O2,inactive: 3.56%,–
COc1ccccc1C(=O)Nc1c(C(=O)N2CCN(c3ccc(F)cc3)CC2)oc2ccccc12,inactive: -6.04%,–
COc1ccc(-c2cc(-c3ccccc3)c(C#N)c(SCC(O)CS(=O)(=O)Cc3ccccc3)n2)cc1 (configuration not stated),inactive: -3.36%,–
CCN1CCN(CCCNC(=O)Cn2c(-c3cccs3)cc3ccccc32)CC1,inactive: -9.57%,–
Cc1ccc2c(=O)cc(C(=O)N(Cc3ccccc3Cl)C3CCS(=O)(=O)C3)oc2c1 (configuration not stated),inactive: 3.33%,–
CC(O)CNC(=O)C(=O)Nc1c2c(nn1-c1ccc(Cl)cc1)CSC2 (configuration not stated),inactive: -0.307%,–
CCOc1ccc(CCNC(=O)CS(=O)(=O)Cc2nc(-c3cccc(Cl)c3)oc2C)cc1,inactive: 0.133%,–
COc1ccc(NC(=O)C2CCCN(C(=O)c3cnn(-c4ccccc4)c3-n3cccc3)C2)cc1 (configuration not stated),inactive: 0.486%,–
O=C(Nc1ccc(F)cc1)c1ccc(Cn2nc(N3CCN(c4ccccc4)CC3)ccc2=O)o1,inactive: -21.9%,–
COC(=O)c1ccc(NC(=O)CCc2c(C)nn(-c3ccc(N4CCOCC4)nn3)c2C)cc1,inactive: 1.52%,–
COc1ccc(CCNc2nc(-c3ccc(Cl)cc3)cc(C(F)(F)F)n2)cc1OC,inactive: -20.4%,–
CCOC(=O)c1c(C)[nH]c(C)c1S(=O)(=O)N1CCC(C(=O)N2CCN(c3cccc(C)c3C)CC2)CC1,inactive: -16.1%,–
COc1ccccc1-c1nc2c(c(SCc3ccc(F)cc3Cl)n1)Cc1c(CO)cnc(C)c1O2,inactive: 3.5%,–
COc1cccc(-c2cc(C(=O)N3CCN(c4ccccc4OC)CC3)no2)c1,inactive: -4.62%,–
COc1ccc(Cl)cc1NC(=O)Cc1coc2c(C)c(C)ccc12,inactive: -19%,–
CCc1ccc(NC(=O)c2sc3nc4c(cc3c2N)CN(CC)CC4)cc1,inactive: -3.55%,–
CCc1cccc(NC(=O)Cn2c(=O)c(C(F)(F)F)nc3ccccc32)c1,inactive: -12.4%,–
Cc1coc2cc3oc(=O)c(CC(=O)N4CCCCC4)c(C)c3cc12,inactive: 3.38%,–
Cc1cccc(CSc2nc3cc(C(=O)NC4CCCC4)ccc3c(=O)n2Cc2ccccc2)c1,inactive: -8.52%,–
CCCN(CCC)CC(O)Cn1cc(/C=C/C(=O)c2ccc(OC)cc2)c2ccccc21 (configuration not stated),–,active: 14.7 µM
Cc1cc(C)c2c(=O)cc(C(=O)Nc3nc4ccc(F)cc4s3)oc2c1,inactive: 1.39%,–
CCC(CC)C(=O)Nc1c(C(=O)N2CCN(c3ccccc3)CC2)oc2ccccc12,inactive: -7.62%,–
CCCCNC(=O)c1cccc(-n2cnc3cccnc32)c1C,inactive: -7.42%,–
